Experimental data as given in EPA's CvTdb concentration-time database.
This continues a long series; more values of the same kind are listed elsewhere.

Columns and labels:
Assay in all cases: concentration in plasma after dosing
[1] = tested on: Rat; conditions: 5 min; dosed: Di-n-butyl phthalate; 200 mg/kg; oral; Male; Sprague-Dawley
[2] = tested on: Rat; conditions: 3 h; dosed: Di-n-butyl phthalate; 200 mg/kg; oral; Male; Sprague-Dawley
[3] = tested on: Rat; conditions: 3 h; dosed: Di-n-butyl phthalate; 200 mg/kg; oral; Male; Sprague-Dawley; remark: listed apart in the source
[4] = tested on: Rat; conditions: 10 h; dosed: Di-n-butyl phthalate; 200 mg/kg; oral; Male; Sprague-Dawley
[5] = tested on: Rat; conditions: 24 h; dosed: Di-n-butyl phthalate; 200 mg/kg; oral; Male; Sprague-Dawley
[6] = tested on: Rat; conditions: 24 h; dosed: Di-n-butyl phthalate; 200 mg/kg; oral; Male; Sprague-Dawley; remark: listed apart in the source
[7] = tested on: Rat; conditions: 6 h; dosed: Di-n-butyl phthalate; 200 mg/kg; oral; Male; Sprague-Dawley
[8] = tested on: Rat; conditions: 6 h; dosed: Di-n-butyl phthalate; 200 mg/kg; oral; Male; Sprague-Dawley; remark: listed apart in the source
[9] = tested on: Rat; conditions: 2 h; dosed: Di-n-butyl phthalate; 200 mg/kg; oral; Male; Sprague-Dawley
[10] = tested on: Rat; conditions: Male
[11] = tested on: Rat; conditions: 15 h; dosed: Di-n-butyl phthalate; 200 mg/kg; oral; Male; Sprague-Dawley
[12] = tested on: Rat; conditions: 0.25 h; dosed: Di-n-butyl phthalate; 200 mg/kg; oral; Male; Sprague-Dawley
[13] = tested on: Rat; conditions: 15 h; dosed: Di-n-butyl phthalate; 200 mg/kg; oral; Male; Sprague-Dawley; remark: listed apart in the source
[14] = tested on: Rat; conditions: 1 h; dosed: Di-n-butyl phthalate; 200 mg/kg; oral; Male; Sprague-Dawley
[15] = tested on: Rat; conditions: 0.25 h; dosed: Di-n-butyl phthalate; 200 mg/kg; oral; Male; Sprague-Dawley; remark: listed apart in the source
[16] = tested on: Rat; conditions: 1 h; dosed: Di-n-butyl phthalate; 200 mg/kg; oral; Male; Sprague-Dawley; remark: listed apart in the source
[17] = tested on: Rat; conditions: 5 min; dosed: Di-n-butyl phthalate; 200 mg/kg; oral; Male; Sprague-Dawley; remark: listed apart in the source
[18] = tested on: Rat; conditions: 0.5 h; dosed: Di-n-butyl phthalate; 200 mg/kg; oral; Male; Sprague-Dawley
[19] = tested on: Rat; conditions: 0.5 h; dosed: Di-n-butyl phthalate; 200 mg/kg; oral; Male; Sprague-Dawley; remark: listed apart in the source
[20] = tested on: Rat; conditions: 10 h; dosed: Di-n-butyl phthalate; 200 mg/kg; oral; Male; Sprague-Dawley; remark: listed apart in the source
[21] = tested on: Rat; conditions: dosed: Nitrite, 20 mg/kg, iv, Male, F344
[22] = tested on: Rat; conditions: dosed: Nitrite, 20 mg/kg, iv, Male, F344; remark: listed apart in the source
[23] = tested on: Rat; conditions: dosed: Nitrite, 20 mg/kg, iv, Male, F344; remark: listed apart in the source
[24] = tested on: Rat; conditions: dosed: Nitrite, 20 mg/kg, iv, Male, F344; remark: listed apart in the source
[25] = tested on: Rat; conditions: dosed: Nitrite, 20 mg/kg, iv, Male, F344; remark: listed apart in the source
[26] = tested on: Rat; conditions: dosed: Nitrite, 20 mg/kg, iv, Male, F344; remark: listed apart in the source
[27] = tested on: Rat; conditions: dosed: Nitrite, 20 mg/kg, iv, Male, F344; remark: listed apart in the source
[28] = tested on: Rat; conditions: dosed: Nitrite, 20 mg/kg, iv, Male, F344; remark: listed apart in the source

CCCCOC(=O)c1ccccc1C(=O)O [Mono-n-butyl phthalate]
Conditions	concentration in plasma [ng/mL]
[1]	3720
[2]	10500
[3]	24100
[4]	4040
[5]	1370
[6]	706
[7]	31800
[8]	19500
[9]	53400
[11]	2100
[12]	45900
[13]	2160
[14]	102000
[15]	61100
[16]	164000
[17]	1800
[18]	113000
[19]	126000
[20]	10100

[10], dosed: Di-n-butyl phthalate, 200 mg/kg, oral, Sprague-Dawley
Conditions	concentration in plasma [ng/mL]
0.25 h	31400
0.5 h	126000
1 h	102000
2 h	107000
3 h	12500
5 min	4400
6 h	34300
10 h	6760
15 h	1970
24 h	407

O=N[O-] [Nitrite]
Conditions	concentration in plasma [ng/mL]
[21], 1.25 h	4100
[21], 10 min	22300
[22], 1 h	3400
[22], 5 min	5600
[23], 1 h	5600
[23], 5 min	13600
[24], 0.5 h	10300
[24], 2 h	1900
[25], 1.5 h	2900
[25], 20 min	4700
[26], 1.25 h	3200
[26], 10 min	13600
[27], 0.5 h	5100
[27], 2 h	2300
[28], 1.5 h	2800
[28], 20 min	9900

[10], dosed: Nitrite, 20 mg/kg, iv, F344
Conditions	concentration in plasma [ng/mL]
0.5 h	9800
0.75 h	7300
1 h	3600
1.25 h	2100
2 h	2000
5 min	4300
10 min	7400
20 min	4000
